# Results as given in the supplement of paper PMC8813932.
# Where a name gives a salt, the structure may show the parent alone. ± gives the standard deviation of the averaged measurements. The list shows a part of the results. Single values are uncertain, as repeats are few or missing.
# How the values were obtained:
# Test in all cases: log2 surviving fraction relative to plate median (drug vs vehicle, or drug+dl922-947 vs dl922-947 alone); ovarian cancer lines: OVCAR4 is platinum-sensitive while Ov4Cis resists cisplatin and Ov4Carbo carboplatin; higher = more cell survival
# Conditions in all cases: compound concentration: 10 uM, 192 h
# [1] = system: OVCAR4
# [2] = system: Ov4Carbo
# [3] = system: Ov4Cis
# [4] = dl922-947 oncolytic adenovirus co-treatment: MOI 10
# [5] = dl922-947 oncolytic adenovirus co-treatment: none
Structure (SMILES),"log2 surviving fraction [1, 4]","log2 surviving fraction [1, 5]","log2 surviving fraction [2, 4]","log2 surviving fraction [2, 5]","log2 surviving fraction [3, 4]","log2 surviving fraction [3, 5]"
C[C@]12CC[C@@H]3c4ccc(O)cc4CC[C@H]3[C@@H]1C[C@@H](O)[C@@H]2O [Estriol],0.815 ± 0.75,0.132 ± 0.47,0.534,0.9,0.415,0.402
NC1CCN(c2c(F)cc3c(=O)c(C(=O)O)cn(C4CC4)c3c2Cl)C1 (stereo not drawn) [Clinafoxacin HCl],0.61 ± 0.35,-3.33 ± 5.2,1.24,0.376,0.204,-0.597
O=C(O)c1cc(/N=N/c2ccc(S(=O)(=O)Nc3ccccn3)cc2)ccc1O [Sulfasalazine (Azulfidine)],-0.366 ± 0.37,-0.612 ± 0.12,-0.301,-0.0619,-1.47,-0.133
O=C(O)c1ccc(-n2nc(-c3ccccc3O)nc2-c2ccccc2O)cc1 [Deferasirox (Exjade)],-2.89 ± 0.69,-4.59 ± 0.98,-2.61,-6.87,-1.9,-3.69
Cc1onc(-c2c(Cl)cccc2Cl)c1C(=O)N[C@@H]1C(=O)N2[C@@H]1SC(C)(C)[C@@H]2C(=O)O [Dicloxacillin Sodium],0.7 ± 0.3,1.12 ± 0.41,-0.465,0.00263,0.526,1.06
CC(C)c1nc(CN(C)C(=O)N[C@@H](CCN2CCOCC2)C(=O)N[C@H](CC[C@H](Cc2ccccc2)NC(=O)OCc2cncs2)Cc2ccccc2)cs1 [Cobicistat (GS-9350)],-0.036 ± 0.14,-2.32 ± 1.4,0.378,-4.25,-0.249,-2.54
CCCc1ncc(C[n+]2ccccc2C)c(N)n1 [Amprolium HCl],0.435 ± 0.1,0.443 ± 0.59,0.57,-0.323,0.232,1.28
CC(C)Cc1ccc(C(C)C(=O)O)cc1 (stereo not drawn) [Ibuprofen (Advil)],0.7 ± 0.19,0.467 ± 0.56,-0.299,0.143,0.23,0.997
Nc1nc(F)nc2c1ncn2[C@@H]1O[C@H](COP(=O)(O)O)[C@@H](O)[C@@H]1O [Fludarabine Phosphate (Fludara)],0.318 ± 1.6,1.73 ± 2,0.262,1.21,-0.0325,0.251
CC(=O)O[C@H]1C[C@@H]2CC[C@@H]3[C@H](CC[C@@]4(C)[C@H]3C[C@H]([N+]3(C)CCCCC3)[C@@H]4OC(C)=O)[C@@]2(C)C[C@@H]1[N+]1(C)CCCCC1 [Pancuronium (Pavulon)],0.204 ± 0.059,-0.251 ± 0.038,-0.0745,-0.248,0.336,-0.00891
O=C1[C@H](CC[C@H](O)c2ccc(F)cc2)[C@@H](c2ccc(O)cc2)N1c1ccc(F)cc1 [Ezetimibe (Zetia)],-1.26 ± 0.96,-0.0754 ± 0.098,-2.91,-0.345,-1.32,0.0284
C[C@@H]1C/C=C/C=C/C=C/C=C/[C@H](O[C@@H]2O[C@H](C)[C@@H](O)[C@H](N)[C@@H]2O)C[C@@H]2O[C@](O)(C[C@@H](O)C[C@H]3O[C@@H]3/C=C/C(=O)O1)C[C@H](O)[C@H]2C(=O)O [Natamycin (Pimaricin)],-0.17 ± 0.52,-0.152 ± 0.32,-0.354,-0.147,-0.729,-0.366
c1ccc2c(CC3=NCCN3)cccc2c1 [Naphazoline hydrochloride (Naphcon)],0.02 ± 0.038,0.147 ± 0.13,-0.894,-0.316,0.137,-0.31
CNCCc1ccccn1 [Betahistine 2HCl],-0.162 ± 0.16,0.153 ± 0.28,0.373,0.137,-0.65,0.237
C[C@]12CC[C@@H]3c4ccc(O)cc4CC[C@H]3[C@@H]1CC[C@@H]2O [Estradiol],0.409 ± 0.28,-0.211 ± 0.13,0.0836,0.472,0.374,-0.0736
CCOC(=O)C1=C(C)NC(C)=C(C(=O)OC)C1c1cccc([N+](=O)[O-])c1 (stereo not drawn) [Nitrendipine],0.173 ± 0.38,0.171 ± 0.13,-0.15,-0.0634,-0.211,-0.356
CC(C)[N+]1(C)[C@@H]2CC[C@H]1C[C@@H](OC(=O)C(CO)c1ccccc1)C2 (stereo partly drawn) [Ipratropium bromide],0.224 ± 0.56,-0.0724 ± 0.029,-0.0502,-0.504,-0.455,0.296
CC(=O)Oc1ccc(C(c2ccc(OC(C)=O)cc2)c2ccccn2)cc1 [Bisacodyl],-2.2 ± 0.74,-3.99 ± 0.87,-0.824,-0.521,-0.889,-0.192
CC(=O)O[C@@]12CO[C@@H]1C[C@@H](O)[C@@]1(C)C(=O)[C@H](O)C3=C(C)[C@@H](O)C[C@@](O)([C@@H](OC(=O)c4ccccc4)[C@H]21)C3(C)C [10-DAB (10-Deacetylbaccatin)],-5.08 ± 0.74,-6.98 ± 3.7,-1.7,-5.96,-3.23,-4.82
NCC[C@H](O)C(=O)N[C@@H]1C[C@H](N)[C@@H](O[C@H]2O[C@H](CN)[C@@H](O)[C@H](O)[C@H]2O)[C@H](O)[C@H]1O[C@H]1O[C@H](CO)[C@@H](O)[C@H](N)[C@H]1O [Amikacin sulfate],0.844 ± 1,0.581 ± 0.072,0.169,0.991,-0.314,0.897
CNC(=C[N+](=O)[O-])NCCSCc1csc(CN(C)C)n1 [Nizatidine],0.0978 ± 1.3,0.0498 ± 0.14,-0.534,-1.98,0.263,-0.105
O=C(O)c1nn(Cc2ccc(Cl)cc2Cl)c2ccccc12 [Lonidamine],-0.0136 ± 0.75,0.129 ± 0.014,0.395,-0.0368,-0.146,0.127

Structure (SMILES),"log2 surviving fraction [1, 4]","log2 surviving fraction [1, 5]","log2 surviving fraction [2, 4]","log2 surviving fraction [2, 5]","log2 surviving fraction [3, 4]","log2 surviving fraction [3, 5]"
CCCN(CCC)S(=O)(=O)c1ccc(C(=O)O)cc1 [Probenecid (Benemid)],0.539 ± 0.9,0.65 ± 0.34,0.294,2.13,0.324,0.753
Cc1onc(-c2ccccc2Cl)c1C(=O)N[C@@H]1C(=O)N2[C@@H]1SC(C)(C)[C@@H]2C(=O)O [Cloxacillin sodium (Cloxacap)],0.969 ± 0.032,0.755 ± 0.58,1.78,-0.33,0.907,0.941
C[C@H]1C[C@H]2[C@@H]3CCC4=CC(=O)C=C[C@]4(C)[C@@]3(F)[C@@H](O)C[C@]2(C)[C@@]1(O)C(=O)CO [Betamethasone (Celestone)],1.55 ± 0.44,-0.293 ± 0.35,1.41,1.08,1.97,-0.804
C=CC[C@]1(O)CC[C@H]2[C@@H]3CCC4=CC(=O)CCC4=C3C=C[C@@]21C [Altrenogest],-0.619 ± 0.58,-0.958 ± 0.23,-0.603,0.707,-0.839,0.0308
NC(=O)N1c2ccccc2CC(=O)c2ccccc21 [Oxcarbazepine],-0.0745 ± 0.86,0.118 ± 0.71,-0.823,-0.0812,-0.494,-0.122
CCC(C)n1ncn(-c2ccc(N3CCN(c4ccc(OCC5COC(Cn6cncn6)(c6ccc(Cl)cc6Cl)O5)cc4)CC3)cc2)c1=O (stereo not drawn) [Itraconazole (Sporanox)],0.6 ± 0.036,0.228 ± 0.19,0.113,0.518,0.657,0.359
CC[C@@]1(O)C(=O)OCc2c1cc1n(c2=O)Cc2cc3ccccc3nc2-1 [Camptothecin],-7.52 ± 0.97,-9.78 ± 6.2,-5.34,-10.2,-6.37,-12.4
CCCC(CCC)C(=O)O [Valproic acid sodium salt (Sodium valproate)],0.942 ± 0.67,1.21 ± 0.27,1.49,2.27,1.56,1.33
Nc1ncn([C@@H]2O[C@H](CO)[C@@H](O)[C@H]2O)c(=O)n1 [Azacitidine (Vidaza)],0.436 ± 1.3,0.0773 ± 1.1,0.338,0.88,-0.842,0.322
COc1nc(C)nc(Cl)c1NC1=NCCN1 [Moxonidine],0.588 ± 0.38,0.271 ± 0.63,-1.59,-0.457,-0.425,-0.15
NC(CO)(CO)CO [Trometamol],0.2 ± 0.62,-0.287 ± 0.66,1.97,0.239,0.203,-0.491
OCCN(CCO)c1nc(N2CCCCC2)c2nc(N(CCO)CCO)nc(N3CCCCC3)c2n1 [Dipyridamole (Persantine)],-0.407 ± 0.31,0.371 ± 0.42,-0.0867,-1.52,0.184,-0.474
CC(C)(C)CC(C)(C)c1ccc(OCCOCC[N+](C)(C)Cc2ccccc2)cc1 [Benzethonium chloride],-10.2 ± 0.97,-12.2 ± 6.3,-8.67,-12.1,-8.83,-15.4
N=C(N)c1ccc(OCCCCCOc2ccc(C(=N)N)cc2)cc1 [Pentamidine],-3.34 ± 1.4,-4.68 ± 1.8,-6.02,-9.21,-2.11,-2.82
CCOC(=O)c1ncn2c1CN(C)C(=O)c1cc(F)ccc1-2 [Flumazenil],0.0489 ± 1,0.612 ± 0.14,0.064,-0.231,0.852,0.426
CCOc1cc(CC(=O)N[C@@H](CC(C)C)c2ccccc2N2CCCCC2)ccc1C(=O)O [Repaglinide],1.05 ± 0.27,-0.162 ± 1.5,-0.24,2.43,1.32,0.773
Cc1noc(NS(=O)(=O)c2ccc(N)cc2)c1C [Sulfisoxazole],-0.923 ± 1.5,0.309 ± 0.47,-0.00608,-0.983,1.05,1.09
N[C@@H]1CN(c2c(F)cc3c(=O)c(C(=O)O)cn([C@@H]4C[C@@H]4F)c3c2Cl)CC12CC2 [Sitafloxacin hydrate],-0.0901 ± 0.053,-0.0268 ± 0.13,-0.617,-0.0717,-0.384,-0.772
CN1CCC(=C2c3ccccc3C=Cc3ccccc32)CC1 [Cyproheptadine HCl (Periactin)],-2.1 ± 0.7,-1.69 ± 1.6,-3.11,-1.13,-4.36,-2.76
O=C(Nc1ccccc1)OCC(CN1CCCCC1)OC(=O)Nc1ccccc1 (stereo not drawn) [Diperodon HCl],-0.325 ± 0.41,-0.754 ± 0.3,-1.05,-0.838,-0.785,-0.409
CCCc1nn(C)c2c(=O)[nH]c(-c3cc(S(=O)(=O)N4CCN(C)CC4)ccc3OCC)nc12 [Sildenafil citrate],0.505 ± 0.23,0.718 ± 1.2,-0.0668,1.07,1.25,1.8
